In the supplement of paper PMC4967469:
By IC50 is meant the dose at which the fit gives 50% viability; a limit (>, <) means that the fit lies beyond the doses tested. AUC sums up the same curve from the lowest dose to the 256-fold higher top dose; values near 1 show little effect. For part of these data: Any top dose called inferred was calculated from the reported fits.

Assays:
Assay in all cases: Viability of human cancer cell lines after 72 h of drug (GDSC screen)
Gefitinib = compound: COc1cc2ncnc(Nc3ccc(F)c(Cl)c3)c2cc1OCCCN1CCOCC1 [Gefitinib]; conditions: top dose 0.5 µM
Procedure: (§1)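 Human cancer cell lines in 384-well plates, medium with 10% serum, drug for 72 h over a 256-fold dose range (nine 2-fold or five 4-fold steps up to the top dose). Adherent lines were fixed and stained with the nucleic acid dye Syto60, suspension lines read with resazurin; signal relative to control wells, capped at 0 and 100%. One two-parameter sigmoid per drug and line, fitted in a mixed model over all curves with the slope shared within a line.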

XL-184 = compound: COc1cc2nccc(Oc3ccc(NC(=O)C4(C(=O)Nc5ccc(F)cc5)CC4)cc3)c2cc1OC [XL-184]; conditions: top dose 5.12 µM; top dose inferred
Procedure: as §1

NU-7441 = compound: O=c1cc(N2CCOCC2)oc2c(-c3cccc4c3sc3ccccc34)cccc12 [NU-7441]; conditions: top dose 2 µM; top dose inferred
Procedure: as §1

WHI-P97 = compound: COc1cc2ncnc(Nc3cc(Br)c(O)c(Br)c3)c2cc1OC [WHI-P97]; conditions: top dose 10.24 µM; top dose inferred
Procedure: as §1

EHT 1864 = compound: O=c1cc(CN2CCOCC2)occ1OCCCCCSc1ccnc2cc(C(F)(F)F)ccc12 [EHT 1864]; conditions: top dose 10 µM; top dose inferred
Procedure: as §1

Phenformin = compound: N=C(N)NC(=N)NCCc1ccccc1 [Phenformin]; conditions: top dose 4000 µM; top dose inferred
Procedure: as §1

AG-014699 = compound: CNCc1ccc(-c2[nH]c3cc(F)cc4c3c2CCNC4=O)cc1 [AG-014699]; conditions: top dose 5 µM; top dose inferred
Procedure: as §1

QL-XI-92 = compound: C=CC(=O)Nc1cc(NC(=O)c2ccc(C)c(NC(=O)c3ccno3)c2)cc(C(F)(F)F)c1 [QL-XI-92]; conditions: top dose 10.24 µM; top dose inferred
Procedure: as §1

Vinorelbine = compound: CCC1=C[C@@H]2CN(C1)Cc1c([nH]c3ccccc13)[C@@](C(=O)OC)(c1cc3c(cc1OC)N(C)[C@H]1[C@@](O)(C(=O)OC)[C@H](OC(C)=O)[C@]4(CC)C=CCN5CC[C@]31[C@@H]54)C2 [Vinorelbine]; conditions: top dose 0.064 µM; top dose inferred
Procedure: as §1

| Cell Line | AUC (Gefitinib) | IC50 (Gefitinib) [µM] | AUC (XL-184) | IC50 (XL-184) [µM] | AUC (NU-7441) | IC50 (NU-7441) [µM] | AUC (WHI-P97) | IC50 (WHI-P97) [µM] | AUC (EHT 1864) | IC50 (EHT 1864) [µM] | AUC (Phenformin) | IC50 (Phenformin) [µM] | AUC (AG-014699) | IC50 (AG-014699) [µM] | AUC (QL-XI-92) | IC50 (QL-XI-92) [µM] | AUC (Vinorelbine) | IC50 (Vinorelbine) [µM] |
| --- | --- | --- | --- | --- | --- | --- | --- | --- | --- | --- | --- | --- | --- | --- | --- | --- | --- | --- |
| LC-1-sq (lung squamous cell carcinoma, adherent) | 0.865 | > 0.5 | 0.958 | > 5.12 | 0.949 | > 2 | 0.982 | > 10.2 | 0.895 | > 10 | 0.799 | 2300 | 0.974 | > 5 | 0.977 | > 10.2 | 0.947 | > 0.064 |
| LCLC-103H (large cell lung carcinoma, adherent) | 0.991 | > 0.5 | 0.939 | > 5.12 | 0.99 | > 2 | 0.958 | > 10.2 | 0.967 | > 10 | 0.709 | 912 | 0.923 | > 5 | 0.9 | > 10.2 | 0.287 | 0.00107 |
| LN-18 (glioma, adherent) | 0.994 | > 0.5 | 0.967 | > 5.12 | 0.957 | > 2 | 0.994 | > 10.2 | 0.979 | > 10 | 0.837 | 1980 | 0.994 | > 5 | 0.993 | > 10.2 | 0.912 | 0.061 |
| LNZTA3WT4 (glioma, adherent) | 0.989 | > 0.5 | 0.948 | > 5.12 | 0.989 | > 2 | 0.981 | > 10.2 | 0.98 | > 10 | 0.772 | 1520 | 0.973 | > 5 | 0.983 | > 10.2 | 0.798 | 0.0298 |
| LOU-NH91 (lung squamous cell carcinoma, adherent) | 0.881 | > 0.5 | 0.966 | > 5.12 | 0.986 | > 2 | 0.938 | > 10.2 | 0.986 | > 10 | 0.828 | 2790 | 0.986 | > 5 | 0.979 | > 10.2 | 0.863 | 0.0635 |
| LS-180 (large intestine, adherent) | 0.963 | > 0.5 | 0.957 | > 5.12 | 0.918 | > 2 | 0.982 | > 10.2 | 0.985 | > 10 | 0.941 | > 4000 | 0.984 | > 5 | 0.982 | > 10.2 | 0.61 | 0.00839 |
| LU-135 (small cell lung carcinoma, suspension) | 0.988 | > 0.5 | 0.891 | 4.17 | 0.953 | > 2 | 0.991 | > 10.2 | 0.971 | > 10 | 0.97 | > 4000 | 0.932 | > 5 | 0.851 | 5.86 | 0.55 | 0.00533 |
| M059J (glioma, adherent) | 0.972 | > 0.5 | 0.926 | > 5.12 | 0.976 | > 2 | 0.971 | > 10.2 | 0.983 | > 10 | 0.791 | 1960 | 0.971 | > 5 | 0.86 | 9.84 | 0.685 | 0.0138 |
| MC-IXC (neuroblastoma, adherent) | 0.974 | > 0.5 | 0.996 | > 5.12 | 0.994 | > 2 | 0.992 | > 10.2 | 0.939 | 9.51 | 0.959 | > 4000 | 0.881 | 2.91 | 0.92 | 8.09 | 0.437 | 0.00281 |
| MDA-MB-361 (breast, adherent) | 0.936 | > 0.5 | 0.967 | > 5.12 | 0.972 | > 2 | 0.979 | > 10.2 | 0.943 | > 10 | 0.925 | > 4000 | 0.989 | > 5 | 0.976 | > 10.2 | 0.632 | 0.00924 |
| ME-180 (cervix, adherent) | 0.915 | > 0.5 | 0.868 | 5 | 0.952 | > 2 | 0.923 | > 10.2 | 0.968 | > 10 | 0.852 | 3290 | 0.959 | > 5 | 0.876 | > 10.2 | 0.726 | 0.0181 |
| MEL-JUSO (melanoma, adherent) | 0.984 | > 0.5 | 0.912 | > 5.12 | 0.961 | > 2 | 0.98 | > 10.2 | 0.916 | > 10 | 0.515 | 276 | 0.939 | > 5 | 0.937 | > 10.2 | 0.523 | 0.00465 |
| MES-SA (uterus, adherent) | 0.992 | > 0.5 | 0.992 | > 5.12 | 0.979 | > 2 | 0.988 | > 10.2 | 0.984 | > 10 | 0.991 | > 4000 | 0.99 | > 5 | 0.987 | > 10.2 | 0.438 | 0.00279 |
| MFE-280 (endometrium, adherent) | 0.982 | > 0.5 | 0.803 | 3.39 | 0.966 | > 2 | 0.932 | > 10.2 | 0.982 | > 10 | 0.739 | 1480 | 0.982 | > 5 | 0.935 | > 10.2 | 0.883 | > 0.064 |
| MFE-296 (endometrium, adherent) | 0.977 | > 0.5 | 0.946 | > 5.12 | 0.939 | > 2 | 0.976 | > 10.2 | 0.977 | > 10 | 0.955 | > 4000 | 0.985 | > 5 | 0.985 | > 10.2 | 0.586 | 0.00701 |
| MG-63 (osteosarcoma, adherent) | 0.981 | > 0.5 | 0.984 | > 5.12 | 0.897 | > 2 | 0.984 | > 10.2 | 0.908 | > 10 | 0.853 | 3940 | 0.903 | > 5 | 0.984 | > 10.2 | 0.486 | 0.00363 |
| MHH-ES-1 (Ewing sarcoma, adherent) | 0.986 | > 0.5 | 0.885 | > 5.12 | 0.98 | > 2 | 0.897 | > 10.2 | 0.876 | 9.67 | 0.861 | 3310 | 0.586 | 0.537 | 0.937 | > 10.2 | 0.474 | 0.00341 |
| MIA-PaCa-2 (pancreas, adherent) | 0.985 | > 0.5 | 0.985 | > 5.12 | 0.905 | > 2 | 0.984 | > 10.2 | 0.944 | > 10 | 0.81 | 2360 | 0.971 | > 5 | 0.984 | > 10.2 | 0.542 | 0.00527 |
| MKN28 (stomach, adherent) | 0.954 | > 0.5 | 0.961 | > 5.12 | 0.97 | > 2 | 0.981 | > 10.2 | 0.929 | > 10 | 0.746 | 1290 | 0.965 | > 5 | 0.976 | > 10.2 | 0.471 | 0.00333 |
| MOG-G-CCM (glioma, adherent) | 0.964 | > 0.5 | 0.864 | > 5.12 | 0.958 | > 2 | 0.968 | > 10.2 | 0.979 | > 10 | 0.571 | 403 | 0.983 | > 5 | 0.81 | 6.55 | 0.57 | 0.0064 |
| MOG-G-UVW (glioma, adherent) | 0.977 | > 0.5 | 0.859 | 4.06 | 0.94 | > 2 | 0.986 | > 10.2 | 0.965 | > 10 | 0.773 | 1520 | 0.938 | > 5 | 0.922 | > 10.2 | 0.555 | 0.00563 |
| MOLT-4 (lymphoblastic leukaemia, suspension) | 0.968 | > 0.5 | 0.904 | 4.58 | 0.962 | > 2 | 0.972 | > 10.2 | 0.968 | > 10 | 0.61 | 471 | 0.984 | > 5 | 0.943 | > 10.2 | 0.537 | 0.00493 |
| MS751 (cervix, adherent) | 0.947 | > 0.5 | 0.978 | > 5.12 | 0.973 | > 2 | 0.989 | > 10.2 | 0.976 | > 10 | 0.706 | 904 | 0.977 | > 5 | 0.985 | > 10.2 | 0.549 | 0.00539 |
| NB12 (neuroblastoma, adherent) | 0.955 | > 0.5 | 0.931 | > 5.12 | 0.976 | > 2 | 0.963 | > 10.2 | 0.793 | 6.46 | 0.966 | > 4000 | 0.934 | > 5 | 0.828 | 9.5 | 0.494 | 0.00383 |
| NCI-H596 (lung adenocarcinoma, adherent) | 0.978 | > 0.5 | 0.898 | > 5.12 | 0.941 | > 2 | 0.974 | > 10.2 | 0.952 | > 10 | 0.968 | > 4000 | 0.97 | > 5 | 0.982 | > 10.2 | 0.921 | > 0.064 |
| NCI-H630 (large intestine, adherent) | 0.972 | > 0.5 | 0.942 | > 5.12 | 0.958 | > 2 | 0.974 | > 10.2 | 0.947 | > 10 | 0.485 | 227 | 0.987 | > 5 | 0.988 | > 10.2 | 0.851 | 0.0544 |
| NCI-H647 (non-small cell lung carcinoma, adherent) | 0.981 | > 0.5 | 0.924 | > 5.12 | 0.982 | > 2 | 0.956 | > 10.2 | 0.963 | > 10 | 0.746 | 1320 | 0.926 | > 5 | 0.762 | 3.83 | 0.699 | 0.015 |
| NCI-H650 (lung adenocarcinoma, adherent) | 0.979 | > 0.5 | 0.969 | > 5.12 | 0.9 | > 2 | 0.96 | > 10.2 | 0.981 | > 10 | 0.681 | 849 | 0.98 | > 5 | 0.924 | > 10.2 | 0.794 | 0.0329 |
| NCI-H841 (small cell lung carcinoma, adherent) | 0.986 | > 0.5 | 0.934 | > 5.12 | 0.988 | > 2 | 0.976 | > 10.2 | 0.89 | > 10 | 0.26 | 51.5 | 0.988 | > 5 | 0.962 | > 10.2 | 0.646 | 0.0102 |
